Assay results reported in article PMC4336329 (PLoS ONE, 2015).
Out of some 310,000 compounds screened, about 2,200 (0.71%) showed an effect of 50% or more. Effects have a minus sign here. Some of the results follow.

These compounds were tested against human ether-à-go-go-related gene (hERG) potassium channel (human, UniProt Q12809) (assay: primary screen, population patch clamp on CHO cells stably expressing hERG).
Sequence of human ether-à-go-go-related gene (hERG) potassium channel (Q12809 whole entry, looked up): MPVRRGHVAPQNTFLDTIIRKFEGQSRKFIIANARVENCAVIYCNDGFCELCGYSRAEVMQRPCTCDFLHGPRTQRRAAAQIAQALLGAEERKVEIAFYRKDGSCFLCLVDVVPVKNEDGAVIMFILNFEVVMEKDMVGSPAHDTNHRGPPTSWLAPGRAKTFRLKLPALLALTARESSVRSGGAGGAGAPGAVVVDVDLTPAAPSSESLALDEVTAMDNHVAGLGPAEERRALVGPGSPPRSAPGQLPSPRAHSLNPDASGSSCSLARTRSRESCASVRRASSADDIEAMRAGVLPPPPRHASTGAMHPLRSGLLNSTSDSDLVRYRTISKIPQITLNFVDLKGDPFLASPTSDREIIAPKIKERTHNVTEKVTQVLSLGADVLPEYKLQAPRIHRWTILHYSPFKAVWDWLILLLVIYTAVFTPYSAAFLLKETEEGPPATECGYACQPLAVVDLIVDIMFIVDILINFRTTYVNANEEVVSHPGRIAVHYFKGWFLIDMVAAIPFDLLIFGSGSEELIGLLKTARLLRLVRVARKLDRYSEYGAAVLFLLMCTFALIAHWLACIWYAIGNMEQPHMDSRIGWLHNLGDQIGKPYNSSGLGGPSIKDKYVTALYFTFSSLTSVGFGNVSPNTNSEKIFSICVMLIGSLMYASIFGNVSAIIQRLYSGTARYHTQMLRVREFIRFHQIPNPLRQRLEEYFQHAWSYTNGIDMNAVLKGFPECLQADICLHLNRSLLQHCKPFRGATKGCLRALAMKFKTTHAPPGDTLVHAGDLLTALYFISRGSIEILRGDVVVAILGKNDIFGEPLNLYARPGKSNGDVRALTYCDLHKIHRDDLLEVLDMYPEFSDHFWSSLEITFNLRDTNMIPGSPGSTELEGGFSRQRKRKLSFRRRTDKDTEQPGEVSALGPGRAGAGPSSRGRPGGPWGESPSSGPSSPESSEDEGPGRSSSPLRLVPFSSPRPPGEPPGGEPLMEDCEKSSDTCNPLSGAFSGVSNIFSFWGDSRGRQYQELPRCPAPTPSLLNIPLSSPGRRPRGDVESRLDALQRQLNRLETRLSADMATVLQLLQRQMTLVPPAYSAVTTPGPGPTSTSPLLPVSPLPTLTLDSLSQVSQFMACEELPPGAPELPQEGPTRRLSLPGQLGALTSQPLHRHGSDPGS

First: CCCCCCCCN1C(=O)N(C)C(N(O)C(=O)NC)C1(C)C (stereo not drawn)
Second: CCOC(=O)N1CCN(C(=O)C(NC(=O)C2CCC(C)CC2)C(C)C)CC1 (stereo not drawn)
The “hERG current change (%, negative = inhibition) at 1uM” value of the first is higher: 15% for the first, 11.9% for the second.

Compared with COc1nnc(-c2ccc(N3CCOCC3)c(NC(=O)c3ccco3)c2)c2ccccc12, COc1ccc(C(=O)Nc2ccc3ccccc3c2)cc1 is higher in “hERG current change (%, negative = inhibition) at 1uM” value: -1.48% for the first, 15.1% for the second.

First: O=C(CCNS(=O)(=O)c1cccs1)N1CCN(c2ccc(F)cc2)CC1
Second: O=S(=O)(NCCOc1ccccc1F)c1cccc(Br)c1
The “hERG current change (%, negative = inhibition) at 1uM” value of the first is lower: 11.6% for the first, 17.4% for the second.

Going from Cc1cc(/C=C2/C(=O)NC(=O)N(Cc3ccco3)C2=O)c(C)n1-c1ccccc1O to Cc1ccc(CCNC(=O)C(C)n2nc(C)c3c(C)n(-c4ccccc4)nc3c2=O)cc1 (stereo not drawn), the “hERG current change (%, negative = inhibition) at 1uM” value falls from 5.38% to -6.35%.

Compared with Cc1cc(C)c(NC(=O)C2CSCCS2)c(C)c1 (stereo not drawn), Cc1ccc(S(=O)(=O)N2CCOCC2)cc1NC(=O)COC(=O)Cn1c(C)csc1=O is higher in “hERG current change (%, negative = inhibition) at 1uM” value: -1.7% for the first, 14.4% for the second.

Going from O=C(CN1CCN(c2ccccn2)CC1)Nc1ccc(Oc2ccccc2)cc1 to COCCCn1c(SCC(=O)Nc2ccccc2)nnc1-c1ccncc1, the “hERG current change (%, negative = inhibition) at 1uM” value falls from 7.89% to -0.44%.

Compared with O=C(O)c1ccccc1Nc1ccc([N+](=O)[O-])cc1, Cc1ccc(S(=O)(=O)Nc2ccc(NC(=O)CN3CCCCC3)c(Cl)c2)cc1 is higher in “hERG current change (%, negative = inhibition) at 1uM” value: 10.3% for the first, 18.4% for the second.

Going from CCOC(=O)c1c(C)[nH]c(C(=O)OCC(=O)Nc2cc(C)c(Cl)cc2OC)c1C to C=CCNC(=O)/C(C#N)=C\c1cc(Cl)c(OCC)c(OC)c1, the “hERG current change (%, negative = inhibition) at 1uM” value falls from 15.3% to 10.9%.

Going from Cc1ccc(S(=O)(=O)Nc2cccc(C(=O)NCCCN3CCCC3=O)c2)cc1F to Cc1ccccc1NC(=O)CN1C(=O)COc2ccc(S(=O)(=O)N3CCCC3)cc21, the “hERG current change (%, negative = inhibition) at 1uM” value rises from 8.25% to 14.1%.

Going from CCc1nnc(NC(=O)CSc2nnc(-c3cccnc3)n2C)s1 to CSc1ccccc1NC(=O)Cn1ccsc1=N, the “hERG current change (%, negative = inhibition) at 1uM” value rises from 5.09% to 27.7%.

First: CC(OC(=O)CCN1C(=O)c2cccc([N+](=O)[O-])c2C1=O)C(=O)Nc1cc(Cl)cc(Cl)c1 (stereo not drawn)
Second: Cc1ccc(S(=O)(=O)N(CCO)Cc2cc3ccc(C)c(C)c3[nH]c2=O)cc1
The “hERG current change (%, negative = inhibition) at 1uM” value of the first is lower: -7.46% for the first, 4.28% for the second.

First: COc1ccc(CN2CCCC(C(=O)N3CCCC3)C2)cc1.O=C(O)C(=O)O (stereo not drawn)
Second: O=[N+]([O-])c1ccc2c(c1N1CCCCC1)=NC1(CCCCC1)[N+]=2[O-]
The “hERG current change (%, negative = inhibition) at 1uM” value of the first is lower: -15.8% for the first, 8.55% for the second.
